According to PubChem BioAssay AID588453 (National Center for Advancing Translational Sciences (NCATS), 2011):
“And” between values parts separate entries of the source, which are not always exact repeats. Identical values can stand only once. Among all 390,000 compounds or so, about 4,000 (1%) were called active. Inconclusive results, whose numbers are uncertain, are shown with a selection of clear calls. The call rests on the fitted dose curve; in most records, active means well fitted inhibition curve with a large enough effect; inconclusive means small, poorly fitted or top-dose-only effect; inactive means no such curve, though single readings can be large or run the other way. Where the call is inconclusive, the potency comes from a doubtful curve fit.

Molecular target: Thioredoxin reductase 1, cytoplasmic (Rattus norvegicus) (UniProt O89049)
Sequence of UniProt O89049 (O89049 whole entry, looked up): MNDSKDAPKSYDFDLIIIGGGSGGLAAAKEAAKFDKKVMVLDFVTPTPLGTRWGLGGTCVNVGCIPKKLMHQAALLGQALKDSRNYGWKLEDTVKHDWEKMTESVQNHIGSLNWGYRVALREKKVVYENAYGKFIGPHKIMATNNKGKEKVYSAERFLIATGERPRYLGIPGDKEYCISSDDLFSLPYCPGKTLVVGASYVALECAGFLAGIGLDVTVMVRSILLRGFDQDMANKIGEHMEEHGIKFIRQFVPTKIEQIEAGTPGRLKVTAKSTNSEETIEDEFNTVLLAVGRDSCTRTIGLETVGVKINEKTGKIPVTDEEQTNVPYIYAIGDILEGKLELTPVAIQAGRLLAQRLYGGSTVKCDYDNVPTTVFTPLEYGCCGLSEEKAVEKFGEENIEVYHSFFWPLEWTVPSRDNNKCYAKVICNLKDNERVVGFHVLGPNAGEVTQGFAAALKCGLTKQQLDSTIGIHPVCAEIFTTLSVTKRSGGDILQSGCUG
Test: qHTS Assay for Inhibitors of Mammalian Selenoprotein Thioredoxin Reductase 1 (TrxR1): qHTS; further: nearly all actives have a fitted effect of over 65% in size
Conditions: recombinant rTrxR1, NADPH fluorescence consumption, selenite substrate; series mostly up to 114 µM; activity change, negative = inhibition: at the top concentration
Procedure, shortened: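 Rat TrxR1 (90 nM in the dispensed reagent) was pre-reduced with 400 uM NADPH for 5 min at room temperature, then incubated with compound for 15 min. After 400 uM selenite was added, NADPH fluorescence (Ex 340/Em 450 nm) was followed for 8 min.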
On the % scale 0 is the no-effect control and ±100 the full control effect; potency means the concentration at half of the fitted maximal effect; tags describe the fitted curve by direction and shape.

SMILES	Potency	activity change, negative = inhibition
Cc1cc2c(c(=O)o1)C(c1cccs1)C(C#N)=C(N)O2 (stereo not given)	inconclusive: 56.2 µM [inhibitor, partial curve, poor fit]	–
COc1cc([N+](=O)[O-])cc(/C=N/NC(=O)C(C)Nc2cccc(C)c2)c1O (stereo not given)	–	inactive: -9.31%
COC(=O)C(C(C)C)N1CCc2c(C)nc3c(C#N)cnn3c21 (stereo not given)	inconclusive: 70.8 µM [inhibitor, single point]	–
CC(=O)C1=C(c2ccc(Cl)c(Cl)c2)N(C(C)=O)n2c(C)nnc2S1	–	inactive: -10.1% [at 57.1 µM]
O=C(O)c1cc(-c2ccccc2)nn1CC1CC(c2cccc([N+](=O)[O-])c2)=NO1 (stereo not given)	inconclusive: 3.16 µM [inhibitor, full curve, poor fit]	–
Oc1ccc2ccccc2c1CNc1ccccn1	inconclusive: 11.2 µM [inhibitor, full curve]	–
C=CCn1c(SCC(=O)N2CCN(C(=O)c3ccco3)CC2)nc2sc(CC)cc2c1=O	inconclusive: 17.8 µM [inhibitor, partial curve]	–
C/C(C/C(C)=C1/SC(=S)NC1=O)=C1\SC(=S)NC1=O	inconclusive: 17.8 µM [inhibitor, partial curve, poor fit]	–
COc1ccc2c(c1OC)C(=O)N1C(C(=O)O)Cc3c([nH]c4ccccc34)C21 (stereo not given)	inconclusive: 89.1 µM [inhibitor, single point]	–
COc1ccc(S(=O)(=O)N2CCCCCC2)cc1NC(=O)CC1OC(=O)c2ccccc21 (stereo not given)	–	inactive: -14.6%
C=CCOc1cccc(C2/C(=C(/O)c3ccccc3)C(=O)C(=O)N2CCN2CCOCC2)c1 (stereo not given)	inconclusive: 50.1 µM [inhibitor, partial curve]	–
C#CCN1C(=O)S/C(=C\c2ccc(-c3ccc(Cl)c(C(=O)O)c3)o2)C1=O	inconclusive: 39.8 µM [inhibitor, partial curve]	–
NC(=O)N/N=C/c1ccc(-c2ccc(S(=O)(=O)Nc3ncccn3)cc2)o1	–	inactive: -29.9%
COc1cc(/C=N/Nc2nc(-c3ccc(S(=O)(=O)N(C)C)cc3)cs2)ccc1O	–	inactive: -19.9%
Cn1c(C=O)c(C#CC(C)(C)O)c2ccccc21	inconclusive: 22.4 µM [inhibitor, single point]	–
CC(=O)c1ccc(OCC(O)CN2CCN(S(=O)(=O)c3c(C)c(C)cc(C)c3C)CC2)cc1 (stereo not given)	inconclusive: 89.1 µM [inhibitor, single point]	–
c1ccc(-c2cnc(CSc3nnc4ccccn34)o2)cc1	inconclusive: 17.8 µM [inhibitor, full curve]	–
Cc1ccc(C2C(C(=O)c3sc(C)nc3C)=C(O)C(=O)N2CCN2CCOCC2)o1 (stereo not given)	inconclusive: 12.6 µM [inhibitor, partial curve, poor fit]	–
O=C(Nc1nc(-c2ccccn2)cs1)c1ccccc1-n1cnnn1	–	inactive: -22.3%
CSC(=S)NN=C(C)c1cccc(C)n1	inconclusive: 2.24 µM [inhibitor, partial curve, poor fit]	–

SMILES	Potency	activity change, negative = inhibition
CN1c2ccccc2C(=O)/C(=C\Nc2ncccn2)S1(=O)=O	inconclusive: 50.1 µM [inhibitor, single point]	–
CS/C(=C\[N+](=O)[O-])Nc1ccc(OC(F)(F)F)cc1	inconclusive: 35.5 µM [inhibitor, full curve, poor fit]	–
O=C(c1ccc(-c2nc3ccccc3s2)s1)N1CCOCC1	–	inactive: 5.35% [at 57.1 µM]
COC(=O)CCS(=O)(=O)c1nc(-c2ccccc2)cc(C(F)(F)F)n1	active: 17.8 µM	–
Cc1cc(=O)oc2cc(O[C@@H]3O[C@H](CO)[C@H](O)[C@H](O)[C@H]3O)ccc12	–	inactive: 2.25% [at 57.1 µM]
Cc1cc(C)cc(NC(=O)CCNC(=O)c2ccc([N+](=O)[O-])cc2)c1	inconclusive: 11.2 µM [inhibitor, partial curve]	–
Cc1ccc(NC(=O)CN(C)C(=O)c2cccc(Br)c2)cc1	–	inactive: -6.02%
O=C(CSc1ncnc2sc3c(c12)CCCC3)N1CCC(c2noc3ccc(F)cc23)CC1	inconclusive: 7.08 µM [inhibitor, single point]	–
C#CCOCCOCCOCCNc1nc(N2CCN(C(=O)[C@H](CO)n3cc([C@@H](N)C(C)C)nn3)CC2)nc(N2CCN(C(=O)[C@H](CO)n3cc([C@@H](N)C(C)C)nn3)CC2)n1	inconclusive: 70.8 µM [inhibitor, single point]	–
Cc1c(CC(=O)N[C@@H](C)C(=O)O)c(=O)oc2c(C)c3occ(-c4ccccc4)c3cc12	–	inactive: -8.84%
CCOC(=O)N1CCC(NC(=O)c2cc(C(=O)NC3CCN(Cc4ccccc4)CC3)ccc2CO)CC1	inconclusive: 79.4 µM [inhibitor, partial curve, poor fit]	–
CSCCC(NC(=O)c1ccc([N+](=O)[O-])cc1Cl)C(=O)OC(C)C(=O)NCc1ccco1 (stereo not given)	inconclusive: 79.4 µM [inhibitor, partial curve, poor fit]	–
COC(=O)C1C2C=CC3(CN(Cc4ccco4)C(=O)C13)O2 (stereo not given)	inconclusive: 39.8 µM [inhibitor, single point]	–
COc1ccc(S(=O)(=O)c2c(N)n(Cc3ccco3)c3nc4ccccc4nc23)cc1	inconclusive: 7.94 µM [inhibitor, full curve, poor fit]	–
CN(CC(=O)O)c1ccc(/C=C2\C=Cc3ccccc32)cc1	inconclusive: 50.1 µM [inhibitor, partial curve] and inconclusive: 56.2 µM [inhibitor, single point]	–
CNc1oc(Cc2ccccc2)nc1S(=O)(=O)c1ccccc1	inconclusive: 3.55 µM [inhibitor, partial curve, poor fit]	–
O=C(CSc1nncn1-c1ccccc1)Nc1ccc(N2CCOCC2)cc1	–	inactive: -16%
CC1CCCCC1NC(=O)NC(=O)COC(=O)c1nccnc1N (stereo not given)	inconclusive: 70.8 µM [inhibitor, single point]	–
Cc1ccccc1OCC(=O)N/N=C/c1sc(=O)n(Cc2cccc(C(=O)O)c2)c1Cl	inconclusive: 79.4 µM [inhibitor, single point]	–
CCOc1ccc(CN2CCNC(=O)C2CC(=O)NC2CCOCC2)cc1 (stereo not given)	inconclusive: 89.1 µM [inhibitor, single point]	–
